# In the supplement of paper PMC10037445:
# In all, about 2,900 compounds were measured (“NF-kB SEAP reporter activity, fold change vs agonist alone”: median about 0.99, highest 2% from about 2.6 on). This is one part of the list.
# Assays:
# RAW-Dual [1] = assay: NF-kB SEAP reporter activity, fold change vs agonist alone; higher = enhanced NF-kB activity; settings: library stock concentration (final ~1000-fold dilution): 10 mM
# Summary of the method: (§1)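 After 50 nL of library stock was delivered by pin tool to RAW-Dual macrophages (50,000 cells/well, DMEM, 384-well plates), a PRR agonist was added 1 h later and the plates were kept at 37 °C, 5% CO2. Twenty hours later, IRF was read from supernatant by QuantiLuc luminescence and NF-κB by QuantiBlue absorbance at 620 nm. Reporter activity is stated as fold change over agonist-alone wells. Wells with IncuCyte confluency under 70% of agonist controls in both mask sets were counted as cytotoxic.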
# RAW-Dual [2] = assay: NF-kB SEAP reporter activity, fold change vs agonist alone; cytotoxicity flag (confluency mask): not cytotoxic; higher = enhanced NF-kB activity
# Summary of the method: as §1
# RAW-Dual [3] = assay: NF-kB SEAP reporter activity, fold change vs agonist alone; cytotoxicity flag (confluency mask): cytotoxic (confluency <70% of control); higher = enhanced NF-kB activity
# Summary of the method: as §1
# [4] = cytotoxicity flag (confluency mask): not cytotoxic, agonist: Imiquimod (TLR7) […]
# [5] = cytotoxicity flag (confluency mask): not cytotoxic, agonist: MPLA (TLR4) […]
# [6] = agonist: ODN 1826 (TLR9) 0.5 ug/mL
# [7] = agonist: Pam2CSK4 (TLR2/6) 0.1 ug/mL
# [8] = agonist: Pam3CSK4 (TLR2/1) 0.1 ug/mL
# [9] = cytotoxicity flag (confluency mask): cytotoxic (confluency <70% of control), agonist: Imiquimod (TLR7) […]
# [10] = cytotoxicity flag (confluency mask): cytotoxic (confluency <70% of control), agonist: MPLA (TLR4) […]
compound,measurement,setting,value
O=C(NOCC(O)CO)c1ccc(F)c(F)c1Nc1ccc(I)cc1F (stereo not given),NF-kB SEAP reporter activity,RAW-Dual [1]; [4],0.195
same,NF-kB SEAP reporter activity,RAW-Dual [1]; [5],0.203
O=C(NOCC(O)CO)c1ccc(F)c(F)c1Nc1ccc(I)cc1F (stereo not given) (library stock concentration (final ~1000-fold dilution): 10 mM),NF-kB SEAP reporter activity,RAW-Dual [2]; agonist: LPS (TLR4) 0.1 ug/mL,0.242
same,NF-kB SEAP reporter activity,RAW-Dual [2]; [6],0.221
same,NF-kB SEAP reporter activity,RAW-Dual [2]; [7],0.106
same,NF-kB SEAP reporter activity,RAW-Dual [2]; [8],0.136
CCN1/C(=C/C(C)=O)Sc2ccc(OC)cc21,NF-kB SEAP reporter activity,RAW-Dual [1]; [4],1.01
same,NF-kB SEAP reporter activity,RAW-Dual [1]; [5],1.29
CCN1/C(=C/C(C)=O)Sc2ccc(OC)cc21 (library stock concentration (final ~1000-fold dilution): 10 mM),NF-kB SEAP reporter activity,RAW-Dual [2]; agonist: LPS (TLR4) 0.1 ug/mL,0.97
same,NF-kB SEAP reporter activity,RAW-Dual [2]; [6],0.789
same,NF-kB SEAP reporter activity,RAW-Dual [2]; [7],1.06
same,NF-kB SEAP reporter activity,RAW-Dual [2]; [8],1.6
CCCCOc1ccc(CC(=O)NO)cc1,NF-kB SEAP reporter activity,RAW-Dual [1]; [4],1.57
same,NF-kB SEAP reporter activity,RAW-Dual [1]; [5],1.4
CCCCOc1ccc(CC(=O)NO)cc1 (library stock concentration (final ~1000-fold dilution): 10 mM),NF-kB SEAP reporter activity,RAW-Dual [2]; agonist: LPS (TLR4) 0.1 ug/mL,2.17
same,NF-kB SEAP reporter activity,RAW-Dual [2]; [6],1.51
same,NF-kB SEAP reporter activity,RAW-Dual [2]; [7],1.53
same,NF-kB SEAP reporter activity,RAW-Dual [2]; [8],1.29
Oc1c(Cl)cc(Cl)cc1Sc1cc(Cl)cc(Cl)c1O,NF-kB SEAP reporter activity,RAW-Dual [1]; [9],1.81
same,NF-kB SEAP reporter activity,RAW-Dual [1]; [10],1.6
Oc1c(Cl)cc(Cl)cc1Sc1cc(Cl)cc(Cl)c1O (library stock concentration (final ~1000-fold dilution): 10 mM),NF-kB SEAP reporter activity,RAW-Dual [3]; agonist: LPS (TLR4) 0.1 ug/mL,3.19
same,NF-kB SEAP reporter activity,RAW-Dual [3]; [6],1.08
same,NF-kB SEAP reporter activity,RAW-Dual [3]; [7],0.362
same,NF-kB SEAP reporter activity,RAW-Dual [3]; [8],0.801
Cc1cc(C)cc(NC(=O)Cc2ccc(OC(C)(C)C(=O)O)cc2)c1 (library stock concentration (final ~1000-fold dilution): 10 mM),NF-kB SEAP reporter activity,RAW-Dual [2]; agonist: LPS (TLR4) 0.1 ug/mL,1.57
same,NF-kB SEAP reporter activity,RAW-Dual [2]; [6],1.22
same,NF-kB SEAP reporter activity,RAW-Dual [2]; [7],1.14
same,NF-kB SEAP reporter activity,RAW-Dual [2]; [8],1.03
Cc1cc(C)cc(NC(=O)Cc2ccc(OC(C)(C)C(=O)O)cc2)c1,NF-kB SEAP reporter activity,RAW-Dual [1]; [4],1.08
same,NF-kB SEAP reporter activity,RAW-Dual [1]; [5],1.27
CC(C)Cc1ccc(C(C)C(=O)NS(C)(=O)=O)cc1 (stereo not given),NF-kB SEAP reporter activity,RAW-Dual [1]; [4],0.933
same,NF-kB SEAP reporter activity,RAW-Dual [1]; [5],0.957
CC(C)Cc1ccc(C(C)C(=O)NS(C)(=O)=O)cc1 (stereo not given) (library stock concentration (final ~1000-fold dilution): 10 mM),NF-kB SEAP reporter activity,RAW-Dual [2]; agonist: LPS (TLR4) 0.1 ug/mL,1.09
same,NF-kB SEAP reporter activity,RAW-Dual [2]; [6],0.809
same,NF-kB SEAP reporter activity,RAW-Dual [2]; [7],1.01
same,NF-kB SEAP reporter activity,RAW-Dual [2]; [8],1.01
O=c1c(O)c(-c2ccccc2)oc2cc(O)cc(O)c12 (library stock concentration (final ~1000-fold dilution): 10 mM),NF-kB SEAP reporter activity,RAW-Dual [2]; agonist: LPS (TLR4) 0.1 ug/mL,2.42
same,NF-kB SEAP reporter activity,RAW-Dual [2]; [6],1.62
same,NF-kB SEAP reporter activity,RAW-Dual [2]; [7],1.12
same,NF-kB SEAP reporter activity,RAW-Dual [2]; [8],1.03
O=c1c(O)c(-c2ccccc2)oc2cc(O)cc(O)c12,NF-kB SEAP reporter activity,RAW-Dual [1]; [4],2.05
same,NF-kB SEAP reporter activity,RAW-Dual [1]; [5],1.52
NC(=O)c1ccc2[nH]c(-c3ccc(Oc4ccc(Cl)cc4)cc3)nc2c1,NF-kB SEAP reporter activity,RAW-Dual [1]; [4],1.47
same,NF-kB SEAP reporter activity,RAW-Dual [1]; [5],2.09
NC(=O)c1ccc2[nH]c(-c3ccc(Oc4ccc(Cl)cc4)cc3)nc2c1 (library stock concentration (final ~1000-fold dilution): 10 mM),NF-kB SEAP reporter activity,RAW-Dual [2]; agonist: LPS (TLR4) 0.1 ug/mL,1.71
same,NF-kB SEAP reporter activity,RAW-Dual [2]; [6],1.59
same,NF-kB SEAP reporter activity,RAW-Dual [2]; [7],2.1
same,NF-kB SEAP reporter activity,RAW-Dual [2]; [8],3.55
CC(=O)O.NCc1ccc(S(N)(=O)=O)cc1,NF-kB SEAP reporter activity,RAW-Dual [1]; [4],1.17
same,NF-kB SEAP reporter activity,RAW-Dual [1]; [5],1.03
CC(=O)O.NCc1ccc(S(N)(=O)=O)cc1 (library stock concentration (final ~1000-fold dilution): 10 mM),NF-kB SEAP reporter activity,RAW-Dual [2]; agonist: LPS (TLR4) 0.1 ug/mL,1.04
same,NF-kB SEAP reporter activity,RAW-Dual [2]; [6],1.01
same,NF-kB SEAP reporter activity,RAW-Dual [2]; [7],0.927
same,NF-kB SEAP reporter activity,RAW-Dual [2]; [8],1.23
NC(=O)c1cccc2cn(-c3ccc(C4CCCNC4)cc3)nc12 (stereo not given),NF-kB SEAP reporter activity,RAW-Dual [1]; [4],0.768
same,NF-kB SEAP reporter activity,RAW-Dual [1]; [5],0.991
NC(=O)c1cccc2cn(-c3ccc(C4CCCNC4)cc3)nc12 (stereo not given) (library stock concentration (final ~1000-fold dilution): 10 mM),NF-kB SEAP reporter activity,RAW-Dual [2]; agonist: LPS (TLR4) 0.1 ug/mL,1.04
same,NF-kB SEAP reporter activity,RAW-Dual [2]; [6],0.192
same,NF-kB SEAP reporter activity,RAW-Dual [2]; [7],1.07
same,NF-kB SEAP reporter activity,RAW-Dual [2]; [8],1.12
COc1ccc(CCCOC(Cn2ccnc2)c2ccc(OC)cc2)cc1.Cl (stereo not given),NF-kB SEAP reporter activity,RAW-Dual [1]; [4],0.901
same,NF-kB SEAP reporter activity,RAW-Dual [1]; [5],1.28
COc1ccc(CCCOC(Cn2ccnc2)c2ccc(OC)cc2)cc1.Cl (stereo not given) (library stock concentration (final ~1000-fold dilution): 10 mM),NF-kB SEAP reporter activity,RAW-Dual [2]; agonist: LPS (TLR4) 0.1 ug/mL,0.82
same,NF-kB SEAP reporter activity,RAW-Dual [2]; [6],0.588
same,NF-kB SEAP reporter activity,RAW-Dual [2]; [7],0.572
same,NF-kB SEAP reporter activity,RAW-Dual [2]; [8],0.84
O=C(/C=C/c1ccc(O)cc1)c1ccccc1,NF-kB SEAP reporter activity,RAW-Dual [1]; [9],0.709
same,NF-kB SEAP reporter activity,RAW-Dual [1]; [10],0.589
O=C(/C=C/c1ccc(O)cc1)c1ccccc1 (library stock concentration (final ~1000-fold dilution): 10 mM),NF-kB SEAP reporter activity,RAW-Dual [3]; agonist: LPS (TLR4) 0.1 ug/mL,0.377
same,NF-kB SEAP reporter activity,RAW-Dual [3]; [6],0.42
same,NF-kB SEAP reporter activity,RAW-Dual [3]; [7],0.469
same,NF-kB SEAP reporter activity,RAW-Dual [3]; [8],0.612
CC(C)(C)NC(=O)c1cncn1C1CCN(c2ccc(-c3nnc(C(F)(F)F)o3)cn2)CC1 (library stock concentration (final ~1000-fold dilution): 10 mM),NF-kB SEAP reporter activity,RAW-Dual [2]; agonist: LPS (TLR4) 0.1 ug/mL,6.27
same,NF-kB SEAP reporter activity,RAW-Dual [2]; [6],3.15
same,NF-kB SEAP reporter activity,RAW-Dual [2]; [8],2.84
O=c1ncnc2[nH][nH]cc1-2 (library stock concentration (final ~1000-fold dilution): 10 mM),NF-kB SEAP reporter activity,RAW-Dual [2]; agonist: LPS (TLR4) 0.1 ug/mL,0.941
same,NF-kB SEAP reporter activity,RAW-Dual [2]; [6],1.03
same,NF-kB SEAP reporter activity,RAW-Dual [2]; [7],1.06
same,NF-kB SEAP reporter activity,RAW-Dual [2]; [8],1.16
O=c1ncnc2[nH][nH]cc1-2,NF-kB SEAP reporter activity,RAW-Dual [1]; [4],0.925
same,NF-kB SEAP reporter activity,RAW-Dual [1]; [5],1.08
CC(C)NCCCn1c(Sc2cc3c(cc2I)OCO3)nc2c(N)ncnc21 (library stock concentration (final ~1000-fold dilution): 10 mM),NF-kB SEAP reporter activity,RAW-Dual [2]; agonist: LPS (TLR4) 0.1 ug/mL,0.4
same,NF-kB SEAP reporter activity,RAW-Dual [2]; [6],0.189
same,NF-kB SEAP reporter activity,RAW-Dual [2]; [7],0.077
same,NF-kB SEAP reporter activity,RAW-Dual [2]; [8],0.152
